Results from patent publication US11178870B2 (priority 2017, dated 2021).

How the values were obtained:
Magnaporthe grisea = format: in vivo; conditions: class of control value, Table 7
Phytophthora infestans = format: in vivo; conditions: class of control value, Table 7
[1] = tested on: Colletotrichum orbiculare; conditions: 250 ppm spray, 2.5 ml/pot; investigated 6 to 10 days after inoculation

| SMILES | Test A control value (blast on rice) (Magnaporthe grisea) | Test F control value (late blight on tomato) (Phytophthora infestans) | Test H control value (anthracnose on cucumber) [1] |
| --- | --- | --- | --- |
| Cn1c(-c2c(F)cccc2F)c(-n2cc(F)cn2)cc(Cl)c1=O [Compound 461] | H (H shows the control value more than 50%) | L (L shows the control value of 50% or less) | H (H shows the control value more than 50%) |
| Cn1c(-c2ccc(F)cc2F)c(-n2cc(F)cn2)cc(Cl)c1=O [Compound 464] | H (H shows the control value more than 50%) | L (L shows the control value of 50% or less) | H (H shows the control value more than 50%) |
| Cc1cnn(-c2cc(Br)c(=O)n(C)c2-c2ccc(F)cc2Cl)c1Cl [Compound 515] | H (H shows the control value more than 50%) | L (L shows the control value of 50% or less) | H (H shows the control value more than 50%) |
| Cc1cnn(-c2cc(Br)c(=O)n(C)c2-c2ccccc2F)c1 [Compound 489] | L (L shows the control value of 50% or less) | L (L shows the control value of 50% or less) | L (L shows the control value of 50% or less) |
| CCn1c(-c2ccccc2C#N)c(-n2ncc(C)c2Cl)cc(Br)c1=O [Compound 472] | H (H shows the control value more than 50%) | L (L shows the control value of 50% or less) | H (H shows the control value more than 50%) |
